Experimental data published in paper PMC10485003, “Antibiotic hyper-resistance in a class I aminoacyl-tRNA synthetase with altered active site signature motif” (Nature Communications, 2023).
Values joined by “and” are separate entries in the source; they are usually repeats but may differ in a detail not shown here. Equal values may be shown once. Further values from the same series stand in other lists.

System: W130Q PmIleRS2
Test: ATP-PPi exchange assay, mupirocin inhibition of amino acid activation
Type: biochemical, Priestia (Bacillus) megaterium
Settings: Replica 1-3
Experimental: L-Ile and ATP concentrations ranged from 1/10 KM to 10 KM values. When measuring the KI towards one of the substrates, the other was held in saturation (concentrations at least 10 KM). The aliquots of the reaction mixture (1–2.5 μl) were quenched in 2 volumes of 500 mM NaOAc pH = 4.5, 0.1% SDS, and formed ^32P-ATP was separated from the remaining ^32P-PPi by thin-layer chromatography on Polygram CEL 300 PEI UV254 TLC plates (Macherey-Nagel, cat: 801063) using 750 mM KH2PO4 pH=3.5, 4 M urea buffer. Visualization and quantification of the signals was performed using a Typhoon Phosphoimager 5 (General Electric) and accompanying ImageQuant™ TL software (SV: 10.2). The kinetic constants were determined using a global fit option of the competitive inhibition model of GraphPad Prism 6 software (SV: 6.01). All experiments were performed in triplicates. The kcat was determined by dividing the maximal velocity, VM, with the used enzyme concentration.
Source data are provided as a Source Data file. Data are presented as the average value
± SD of three independent experiments. b) A 2Fo-Fc Fourier difference map of the W130Q-HVGH-PmIleRS2:Ile-AMS […]

`C/C(=C\C(=O)OCCCCCCCCC(=O)O)C[C@@H]1OC[C@H](C[C@@H]2O[C@H]2[C@@H](C)[C@H](C)O)[C@@H](O)[C@H]1O` [mupirocin] was tested, and the “vo (initial enzyme velocity)” value (c (mupirocin) = 1.0 μM, c (ATP) 2.5 mM, raw data for KI(MUP) towards ATP) was 0.0161 mM/min and 0.01682 mM/min and 0.01574 mM/min, the “vo (initial enzyme velocity)” value (c (mupirocin) = 5.0 μM, c (ATP) 2.5 mM, raw data for KI(MUP) towards ATP) was 0.00878 mM/min and 0.00859 mM/min and 0.00719 mM/min and the “vo (initial enzyme velocity)” value (c (mupirocin) = 5.0 μM, c (Ile) 120.0 μM, raw data for KI(MUP) towards Ile) was 0.03274 mM/min and 0.03399 mM/min. The “vo (initial enzyme velocity)” value (c (mupirocin) = 10.0 μM, c (ATP) 2.5 mM, raw data for KI(MUP) towards ATP) was 0.00518 mM/min and 0.00484 mM/min and 0.00406 mM/min and the “vo (initial enzyme velocity)” value (c (mupirocin) = 25.0 μM, c (ATP) 2.5 mM, raw data for KI(MUP) towards ATP) was 0.00162 mM/min and 0.0022 mM/min and 0.00235 mM/min.
